The results in this text go back to a collection of fitness landscapes (doi:10.1126/science.1257360).

The list shows a part of the results.

B1: PhoQ; a variant is named by its letters at X, in order, P23837 (parent)
chain: MKKLLRLFFPLSLRVRFLLATAAVVLVLSLAYGMVALIGYSVSFDKTTFRLLRGESNLFYTLAKWENNKLHVELPENIDKQSPTMTLIYDENGQLLWAQRDVPWLMKMIQPDWLKSNGFHEIEADVNDTSLLLSGDHSIQQQLQEVREDDDDAEMTHSVAVNVYPATSRMPKLTIVVVDTIPVELKSSYMVWSWFIYVLSANLLLVIPLLWVAAWWSLRPIEALAKEVRELEEHNRELLNPATTRELTSLVRNLNRLLKSERERYDKYRTTLTDLTHSLKTPLXXLQXXLRSLRSEKMSVSDAEPVMLEQISRISQQIGYYLHRASMRGGTLLSRELHPVAPLLDNLTSALNKVYQRKGVNISLDISPEISFVGEQNDFVEVMGNVLDNACKYCLEFVEISARQTDEHLYIVVEDDGPGIPLSKREVIFDRGQRVDTLRPGQGVGLAVAREITEQYEGKIVAGESMLGGARMEVIFGRQHSAPKDE

In the assay the parent is B1. Briefly: enrichment ratio after two sorts for PhoP signalling (ratio (wild type AVST 3.29)); higher = more functional. As to conditions: with PhoP (E. coli).
In the case of PSRQ, the enrichment ratio was ≤ 0.25. Then WEDI, with ≤ 0.25. The result for YGYK reads ≤ 0.25; that for NSCV, ≤ 0.25; that for TPNP, ≤ 0.25.

Take FSAN: the enrichment ratio was ≤ 0.25. The result for RARV reads 0.363; that for EFNA, ≤ 0.25; that for IMEG, ≤ 0.25. For EVFT, the enrichment ratio is ≤ 0.25. Then TGWK, with ≤ 0.25; and YWMA, with ≤ 0.25. The result for QDDK reads ≤ 0.25. The result for GQKV reads ≤ 0.25; that for KQPG, ≤ 0.25.

For NYTP, the enrichment ratio is ≤ 0.25. Then EWSS, with ≤ 0.25; and AEPL, with ≤ 0.25; and VNAF, with ≤ 0.25. In the case of FECC, the enrichment ratio was 22.6. Then YWMW, with ≤ 0.25; and QFPK, with ≤ 0.25; and FEEG, with ≤ 0.25. The result for PHIM reads ≤ 0.25; that for IMDT, ≤ 0.25. On to YEAM, for which the enrichment ratio was determined as 2.47. The result for EWSF reads ≤ 0.25; that for FVEH, ≤ 0.25; that for TKYC, ≤ 0.25.

As for ESNF, the enrichment ratio is ≤ 0.25. Consider GGWV, for which the enrichment ratio is ≤ 0.25.

For TAEH, the enrichment ratio worked out at 3.11. RGAH: the enrichment ratio is ≤ 0.25. Then TVAH, with 3.22. The result for FWTD reads ≤ 0.25; that for MKNY, ≤ 0.25. The result for HCNK reads ≤ 0.25; that for YIKI, ≤ 0.25. Turning to TMGQ, the enrichment ratio worked out at 5.04.

As for MFQT, the enrichment ratio is ≤ 0.25. The result for WMYV reads ≤ 0.25; that for QMMY, ≤ 0.25. Then MPCL, with ≤ 0.25; and QKWY, with ≤ 0.25; and NFEV, with ≤ 0.25.

On to SFGH, for which the enrichment ratio was ≤ 0.25. On to MMTC, for which the enrichment ratio was ≤ 0.25.

FNCN: the enrichment ratio is ≤ 0.25. Then LSDE, with ≤ 0.25. The result for AWAF reads ≤ 0.25.

In the case of TWWW, the enrichment ratio is ≤ 0.25. Then YKHC, with ≤ 0.25; and AMLF, with 6.39; and PEYL, with ≤ 0.25. For PSWI, the enrichment ratio was ≤ 0.25.

For SRMI, the enrichment ratio was 2.61.

HTYT: the enrichment ratio was ≤ 0.25.

Consider KSVH, for which the enrichment ratio was ≤ 0.25. Then RGKM, with ≤ 0.25; and WTFS, with ≤ 0.25. The result for MRGW reads ≤ 0.25; that for ARFP, ≤ 0.25; that for GDLP, ≤ 0.25. The result for QAAK reads ≤ 0.25; that for KTIH, ≤ 0.25; that for DHWV, ≤ 0.25.

ISFP: the enrichment ratio is ≤ 0.25. The result for DPSP reads ≤ 0.25; that for IQLV, ≤ 0.25; that for TWGW, ≤ 0.25. The result for KDNL reads ≤ 0.25; that for RIKY, ≤ 0.25.

Take VLGT: the enrichment ratio was ≤ 0.25.

For the variant HVLL, the enrichment ratio is ≤ 0.25.

As for MDVM, the enrichment ratio turned out to be 8.67.

On to NDTE, for which the enrichment ratio was ≤ 0.25. Then QIAR, with ≤ 0.25; and RAMT, with ≤ 0.25.

LMKI: the enrichment ratio was ≤ 0.25. The result for DHMW reads ≤ 0.25.

With VMTP, the enrichment ratio was ≤ 0.25. As for FTHK, the enrichment ratio is ≤ 0.25. Then AHPV, with ≤ 0.25. Then FHAS, with ≤ 0.25. In the case of VMSR, the enrichment ratio is ≤ 0.25. The result for HKPW reads ≤ 0.25. Then HQYG, with ≤ 0.25; and GRSL, with ≤ 0.25; and NCVV, with ≤ 0.25.

For the variant MSIY, the enrichment ratio is ≤ 0.25. Then KNCN, with ≤ 0.25; and IPHA, with ≤ 0.25. In the case of LSIT, the enrichment ratio was ≤ 0.25.

Regarding DFGV, the enrichment ratio is ≤ 0.25. On to HDAI, for which the enrichment ratio is ≤ 0.25.

For NAYF, the enrichment ratio is ≤ 0.25. The result for SSQE reads 7.49; that for RRKH, ≤ 0.25. Then SEMQ, with 8.89; and AQTA, with ≤ 0.25; and WFMC, with ≤ 0.25. Then LELA, with ≤ 0.25. On to AQQW, for which the enrichment ratio is ≤ 0.25. The result for PPHP reads ≤ 0.25. The result for GRVV reads ≤ 0.25; that for NNFN, ≤ 0.25; that for VYDD, ≤ 0.25. Consider QSKN, for which the enrichment ratio was ≤ 0.25. The result for TAGD reads 9.3; that for TIPF, ≤ 0.25; that for HNTM, ≤ 0.25. Then DQIM, with ≤ 0.25. Then AWFK, with ≤ 0.25.

For the variant HHPG, the enrichment ratio was ≤ 0.25. Then MSKP, with ≤ 0.25; and HHAC, with ≤ 0.25; and VSND, with ≤ 0.25. For the variant IWCN, the enrichment ratio is ≤ 0.25.

As to QPEF, the enrichment ratio was ≤ 0.25. Consider VTYT, for which the enrichment ratio was ≤ 0.25. Then MFQY, with ≤ 0.25; and KCCT, with ≤ 0.25; and ESCF, with ≤ 0.25. The result for PFLW reads ≤ 0.25.

As to KDCS, the enrichment ratio was ≤ 0.25. The result for SEDE reads ≤ 0.25; that for YPEK, ≤ 0.25. As to SQPA, the enrichment ratio is ≤ 0.25. SSID: the enrichment ratio is ≤ 0.25. The result for YETT reads ≤ 0.25; that for HKPH, ≤ 0.25.

For PSCW, the enrichment ratio was ≤ 0.25. The result for KSNW reads ≤ 0.25; that for KYFP, ≤ 0.25; that for QGGV, 8.5. For the variant KSYR, the enrichment ratio is ≤ 0.25.

As for MMNV, the enrichment ratio was ≤ 0.25. In the case of EGIE, the enrichment ratio was ≤ 0.25. Then MYKK, with ≤ 0.25; and QIHK, with ≤ 0.25; and YWWG, with ≤ 0.25. The result for MVMK reads ≤ 0.25; that for PPTR, ≤ 0.25; that for STGK, ≤ 0.25. The result for NTDA reads ≤ 0.25. On to GSKN, for which the enrichment ratio is ≤ 0.25. The result for IAEP reads ≤ 0.25.

Regarding IFWD, the enrichment ratio was ≤ 0.25. The result for FCMV reads 6.72; that for IIYI, ≤ 0.25. As to SSFR, the enrichment ratio was ≤ 0.25. Then HNSE, with ≤ 0.25; and YQGG, with ≤ 0.25.
